Test results from PubChem BioAssay AID602233 (National Center for Advancing Translational Sciences (NCATS), 2012).
Hit rate of the full screen: of about 380,000 compounds, about 170 (0.045%) were called active. Calls come from the whole dose curve; as a rule, active = well fitted inhibition curve with a large enough effect; inconclusive = small, poorly fitted or top-dose-only effect; inactive = no such curve, though single readings can be large or run the other way. The entries are a selection whose mix differs from that of the whole data set. Some structures have more than one record in an assay (separate samples or runs), and their calls can disagree. Where a SMILES comes first, the peptide text is derived from it. Bridges are numbered along the chain shown (N, C = ends). [ ]: non-standard residue; d: D form. The star is where a group is joined. X1 = CCC(C)C(N)C1=NC(C(=O)*)CS1; dOrn = NCCC[C@@H](N)C(=O)O

Biological target: Phosphoglycerate kinase, glycosomal (Trypanosoma brucei brucei) (UniProt P07378)
Experiment: qHTS Assay to Find Inhibitors of Phosphoglycerate Kinase; note: nearly all actives have a fitted effect of over 60% in size
Conditions: PGK/GAPDH coupled, Kinase-Glo luminescence, 60 min; series mostly up to 57.5 µM; activity change, negative = inhibition: at the top concentration
Description: Several species of the Trypanosomatidae family of parasitic protozoans cause a spectrum of diseases throughout the tropical and subtropical world. Sleeping sickness, caused by two subspecies of Trypanosoma brucei, is endemic to areas of sub-Saharan Africa, while Chagas disease, a manifestation of Trypanosoma cruzi infection, is prevalent throughout Central and South America. In addition, many species of Leishmania are responsible for a range of cutaneous and visceral diseases, causing ulcers, destructive lesions and kalaazar, a lethal infection of the viscera. Collectively, these organisms infect 30 million people worldwide (~500 million live in endemic areas), and account for ~130,000 deaths annually. Given their debilitating and prevalent nature, trypanosomatid parasites impose a heavy medical, economic and social burden on entire populations, primarily in the developing world. The problem is further exacerbated by the fact that existing treatments have progressed little in the past 50 years, and current drugs show high toxicity and poor efficacy. […] Blood-stream stages of T. brucei are entirely dependent on glycolysis as a source of ATP, and the tricarboxylic acid cycle and oxidative phosphorylation are both repressed. Glycolysis in axenically cultured T. cruzi, representing the intracellular pathogenic stage, is also essential for these parasites. […] Previous studies have shown that the glycolytic enzyme, phosphoglycerate kinase (PGK), is a viable target for drugs to kill these parasites. […] NIH Molecular Libraries Probe Production Network [MLPCN] NIH Chemical Genomics Center [NCGC] MLPCN Grant: R03 MH093212 PI Name: Malcolm Walkinshaw, University of Edinburgh
3ul of substrate/PGK buffer (columns 1,2,5-48) are dispensed into Greiner white solid bottom 1536-well assay plates; columns 3-4 receive only TEA buffer as 0x PGK controls. Compounds are then transferred via Kalypsys pin tool equipped with 1536-pin array (10nl slotted pins, V&P Scientific, San Diego, CA). Following addition of compound, 1ul of GAPDH (100nM final concentration, all columns) is added to initiate the reaction (this upstream coupling enzyme is necessary for in-well production of PGK substrate, 1,3-bisphosphoglycerate (1,3-BPG), which is unstable and not commercially available). The plates are then incubated at room temperature for 60 minutes. Kinase-Glo Plus reagent is added (2ul) and plates incubated for 10 minutes, before being transferred to a ViewLux high-throughput CCD imager (PerkinElmer) wherein single end-point measurements of luminescence are acquired using a clear filter. All reagents are diluted in an assay buffer consisting of 100mM TEA (pH 7.6), 5mM MgCl2 and 0.01% Tween-20.
Potency is the fitted concentration of half-maximal effect.

SMILES | Potency | activity change, negative = inhibition | outcome
O=C(O)C1Nc2ccc(Br)cc2C2C=CCC12 (stereo not drawn) | active: 31.6 µM | – | –
COc1ccccc1/C=N/NC(=O)c1ccc(NC(=O)c2ccccc2Br)cc1 | – | inactive: 19% | –
Cc1ccc(CNS(=O)(=O)c2ccc3c(c2)CCN3C(=O)CCCC(=O)O)cc1 | – | – | inactive
O=C(Nc1nc(-c2ccccc2Cl)cs1)c1cccnc1 | – | inactive: 24.2% | –
O=C(O)CC(C(=O)O)N1C(=O)/C(=C/c2ccc(-c3nc4ccccc4s3)o2)SC1=S (stereo not drawn) | active: 25.1 µM | – | –
Cc1cccc(Cc2cnc(N3C(=N)SC(C)C3=O)s2)c1 (stereo not drawn) | – | inactive: -1.14% | –
CC(C)(C)OC(=O)C[C@@H]1C/C=C\C[C@H](CC(=O)N(CCO)Cc2ccccc2)C(=O)NC[C@@H](c2ccccc2)OC1=O | – | inactive: 1.58% | –
O=CC(O)C1OC(=O)C(O)C1O (stereo not drawn) | active: 6.31 µM | – | –
CCC1(c2ccccc2)NC(=O)N(CC(=O)Nc2cc(S(=O)(=O)N3CCCCC3)ccc2N(C)C)C1=O (stereo not drawn) | – | inactive: 18.1% | –
CC(C)(C)OC(=O)C[C@@H]1C/C=C\C[C@H](CC(=O)NCCO)C(=O)N2CCC[C@@H]2COC1=O | – | inactive: -0.504% | –
O=C(NC1CCN(Cc2ccccc2)CC1)c1cccc(S(=O)(=O)Nc2cc(C(F)(F)F)ccc2Cl)c1 | – | inactive: 23.7% | –
CCC(C)C(N)C1=NC(C(=O)N[C@@H](CC(C)C)C(=O)N[C@H](CCC(=O)[O-])C(=O)N[C@H](C(=O)N[C@H]2CCCCNC(=O)[C@H](CC(N)=O)NC(=O)[C@@H](CC(=O)[O-])NC(=O)[C@H](Cc3cnc[nH]3)NC(=O)[C@@H](Cc3ccccc3)NC(=O)[C@H]([C@@H](C)CC)NC(=O)[C@@H](CCCN)NC2=O)[C@@H](C)CC)CS1.[Zn+2] (stereo partly drawn) (X1-L[dE]IK[dOrn]I[dF]H[dD]N; lactam 4-C) | active: 28.2 µM | – | –
COc1ccc2nc(C)cc(N3CC(C)OC(C)C3)c2c1 (stereo not drawn) | – | inactive: 19.7% | –
O=C(CNC(=S)N(Cc1ccccc1)Cc1cccnc1)NCCN1CCOCC1 | – | inactive: 0.663% | –
CC(=O)Nc1ccccc1Sc1ccccc1 | – | inactive: 23.5% | –
O=C(CCCSc1ccccc1)Nc1ccc(Cl)c(S(=O)(=O)N2CCOCC2)c1 | – | inactive: 23.3% | –
CC(C)(C)OC(=O)C[C@@H]1C/C=C\C[C@H](CC(=O)N(CCO)Cc2ccccc2)C(=O)NC[C@H](c2ccccc2)OC1=O | – | inactive: -4.06% | –
CC(C)(C)OC(=O)C[C@@H]1C/C=C\C[C@@H](CC(=O)N(CCO)Cc2ccccc2)C(=O)NC[C@H](c2ccccc2)OC1=O | – | inactive: 2.42% | –
COc1ccc(CNc2nc(SCC(=O)NCc3ccco3)nc3ccccc23)cc1 | – | inactive: 17.1% | –
C=CCC1C=CCC(CC=C)N1C(=O)c1ccccc1[N+](=O)[O-] (stereo not drawn) | – | inactive: 22.7% | –
O=C(O)CCCCCN1C(=O)/C(=C\c2cn(-c3ccccc3)nc2-c2cccs2)SC1=S | – | inactive: -23.8% | –
COC(=O)C1=C(N)Oc2c(oc(CO)cc2=O)C1c1ccccc1F (stereo not drawn) | – | inactive: 25.2% | –

SMILES | Potency | activity change, negative = inhibition | outcome
O=C(O)/C=C\C(=O)NNC(=O)c1cc(-c2ccccc2)n[nH]1 | – | inactive: -18.1% | –
O=[N+]([O-])c1ccccc1/C=N/Nc1nnc(-c2ccccc2)c(-c2ccccc2)n1 | – | inactive: 20.8% | –
CC(=O)NN1C(=O)/C(=C\c2ccc(Br)o2)SC1=S | – | inactive: -2.62% | –
CCOC(=O)COc1cc(OCC(=O)OCC)c2c(=O)cc(-c3ccccc3)oc2c1 | – | inactive: 24.4% | –
CSCCC(NS(=O)(=O)c1ccc(C)cc1)C(=O)N1CCCCCCC1 (stereo not drawn) | – | inactive: 23.2% | –
COc1ccc(C2=Nn3c(nnc3-c3ccncc3)SC2)cc1OC | – | inactive: 18.8% | –
COc1ccc(NS(=O)(=O)c2ccc3c(c2)[C@H]2C=CC[C@H]2[C@@H](c2ccc(C(=O)O)cc2)N3)cc1 | – | inactive: -24.3% | –
CCN(CC)C(=O)CC(c1ccccc1)c1ccco1 (stereo not drawn) | – | inactive: 17.8% | –
COC(=O)C1=CO[C@@H](O[C@@H]2O[C@H](CO)[C@@H](O)[C@H](O)[C@H]2O)C2C1C=C[C@@]2(O)CO (stereo partly drawn) | – | inactive: -3.91% | –
CCN(CC)C(=O)c1cncc(C(=O)N(CC)CC)c1-c1ccccc1 | – | inactive: 18.5% | –
CCCCn1c(N)c(N(Cc2ccccc2OC)C(=O)CSCC(=O)Nc2cccc(C)c2)c(=O)[nH]c1=O | – | inactive: 22.7% | –
C[C@@H]1O[C@@H](OC[C@@H]2O[C@H](Oc3c(-c4ccc(O)cc4)oc4cc(O)cc(O)c4c3=O)[C@@H](O)[C@H](O)[C@H]2O)[C@H](O)[C@H](O)[C@H]1O | – | – | inactive
C/C(N)=C(/C#N)C(=O)CSc1nnc(Nc2c(C)cccc2C)s1 | – | inactive: -21% | –
O=C(O)C(c1ccccc1)N1C(=O)/C(=C\c2ccc(-c3ccccc3Cl)o2)SC1=S (stereo not drawn) | active: 11.2 µM | – | –
O=C1COc2ccc(C(=O)COC(=O)CNC(=O)C3CCCCC3)cc2N1 | – | inactive: -2.84% | –
COc1ccc(CCN2CC(C(=O)NCCc3ccc(C)cc3)CC2=O)cc1OC (stereo not drawn) | – | inactive: -24.6% | –
CCOc1ccccc1N(C)C(=O)c1sc2nc3n(c(=O)c2c1C)CCCC3 | – | inactive: 15.9% | –
CC(=O)CSc1nnc(-c2ccc(S(=O)(=O)N3CCC(C)CC3)cc2)o1 | – | inactive: 25.1% | –
COc1cc2c(C#N)c(N3CCCC3)nc(N)c2c(N)n1 | – | inactive: -9.43% | –
C[C@@H]1O[C@@H](Oc2c(-c3cc(O)c(O)c(O)c3)oc3cc(O)cc(O)c3c2=O)[C@H](O)[C@H](O)[C@H]1O | – | inactive: -29.9% | –
CC(C)(C)OC(=O)C[C@H]1C/C=C\C[C@@H](CC(=O)N(CCO)Cc2ccccc2)C(=O)NC[C@@H](c2ccccc2)OC1=O | – | inactive: 9.9% | –
